This is one part of the list.
test system: PfAP2-HC AP2 domain (GST-tagged); assay: gcPBM binding intensity (ln(normalized median fluorescence intensity)); higher = stronger DNA binding
In short: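 Using an Agilent 4 × 180k array, primer-extended double-stranded 36-bp intergenic genomic probes and negative controls were exposed for 1 h to GST-fused P. falciparum DNA-binding domains expressed in E. coli. Binding was carried out in 1× PBS with 1% milk, 0.2 mg/ml BSA, 0.5% salmon testes DNA and 0.03% Triton X-100, and protein was detected with Alexa488 anti-GST antibody and a 488 nm scan. Binding intensity is the highest Masliner-normalised natural-log median intensity across replicate spots of either probe orientation.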

| Sequence | gcPBM binding intensity (ln) |
| --- | --- |
| AATCAAAACAACAATAGTACATAAAAAAACAAAACA [XGTACX_site4181] | 9.9 |
| ATTAAATGTTATATTTGTACATATTATATATATATA [XGTACX_site5095] | 9.68 |
| TCCATATTTGTTCACACACACACATATTTATATATA [CACACA_site3570] | 10.9 |
| TTTGTTATTTTTTATTGTACTTTTTTTCTTTCATAA [XGTACX_site4302] | 9.8 |
| TTCATTTTTTATTATAGTACACATAATATTTGCAGA [XGTACX_site4032] | 9.59 |
| TATATATATATGTGCGTGCACGTTACCTTGCTGTTT | 9.85 |
| TTTCCAAATACAACTACACACAAACAAAAGTTATAT [CACACA_site6544] | 10.2 |
| AAATTTAACAACTTCAAACACACAATATATATATAT [CACACA_site2092] | 9.82 |
| TCCTATATATAAATATTAATATATATGTATTGGTAT [GTGCAC_negctrl_site23] | 9.61 |
| TATAATAATAATTATACATGCATGAATATTTATATG [TGCATGCA_site811] | 9.55 |
| AAAAAAAAAAAAAACACACACACAAATACAAATGGT [CACACA_site1721] | 10.5 |
| TTTCTTATTTTGGATTGTACGTATATTTTTCATTTT [XGTACX_site224] | 10 |
| TTACACATGAGAAAATGTACATATAATAAAATATGT [XGTACX_site904] | 9.68 |
| TTATATTTCAATCATATTGTCACAAGTCATATTTAT [GTGCAC_negctrl_site366] | 9.56 |
| ATGGACAAGTTAAACGCACACAAATATATACACCCA [CACACA_site8478] | 10.6 |
| AATAAAAAAAATAGCATACACACATATATACATATA [CACACA_site659] | 10.2 |
| AACAAAAAAAAAAAAAAAAAAAAAAAAAAAAAAATG [CACACA_negctrl_site1127] | 9.24 |
| ATGTTCTTATTATTGGTGCAAGAATACACAAGAAAA | 9.64 |
| TATTGTTCTTATTTAGTGCATATATAATATAATATA [GTGCAC_site9827] | 9.43 |

| Sequence | gcPBM binding intensity (ln) |
| --- | --- |
| AACACATAATAAAATTGTACCCAACATTTCTTTTGA [XGTACX_site8061] | 9.76 |
| TATGTGAATAAATAAGCACACATAAACACATATATA [CACACA_site9359] | 10 |
| TTTTGAAGCTTTAAAACATATATATATATATATATA [CACACA_negctrl_site184] | 9.63 |
| AGCAAAACAAAAAAATTAAAATTAACATATAATCAT [GTGCAC_negctrl_site393] | 9.62 |
| AATAAGAGGATACATTGTACATAAAAAAAAAAAATA [XGTACX_site1815] | 9.61 |
| TATATAAACACGTACACACACATATCTGTATTTATA [CACACA_site5858] | 10.4 |
| AATACCTACCAAACATGTACATACGCTTCTCAAATA [XGTACX_site5535] | 9.67 |
| GTGAGCTCAGACTACACACACAAAGAAAAAAATAAA [CACACA_site1553] | 9.98 |
| AACAAATACAGACACACACACACACCCAAAAAAAAA [CACACA_site515] | 10.9 |
| ATACAACAAAAATAAGCACACACAAATATACATACA [CACACA_site9201] | 10.8 |
| ATAAAAATTTAAAAAGAACACACGAAAGAAGGACTT [CACACA_site3929] | 9.98 |
| TTTATAACATTTAAGAGTACAAAAAAATAAATAAAT [XGTACX_site1264] | 9.56 |
| TAAAAGATAAAATATGCATGTGTAATTTTTTTTTTT [TGCATGCA_site955] | 9.62 |
| GAAATATAATTTATTACACACATTTTAAAAAAATTC [CACACA_site1087] | 9.6 |
| TTCAACGTTTTGGAATGTACAGAAAGGTATCCATCA [XGTACX_site179] | 9.44 |
| AAAAAAAAAAAAAAAAAAAAAAAAAAAAAATATGTG [GTGCAC_negctrl_site657] | 9.38 |
| AAAAAAATATATAAATGTACATATTGTTTAATTAAT [XGTACX_site3794] | 9.74 |
| ATGAACTAAACTAATCGTACAATAAGTTTTATTATA [XGTACX_site4891] | 9.41 |
| ATCTATCATATTTATGCACACAAAAATAATTAATTC [CACACA_site8837] | 9.85 |

| Sequence | gcPBM binding intensity (ln) |
| --- | --- |
| TCACACACTCTCAAAAGTACAAGAAGATTATGAAGA [XGTACX_site4748] | 9.73 |
| TATTATTTACTTATTGCACACATATAAAATATATTT [CACACA_site9017] | 9.84 |
| AATTTACAAAAAAGAAAAAAAAAAAAAAAGATACTT [CACACA_negctrl_site1434] | 9.5 |
| ATATGCACTCATTGTGCACACGCATATTACGAAAAG [CACACA_site2637] | 9.87 |
| ATATTATAATGTTTTTACGAATTCGCAAATTATTAT [GTGCAC_negctrl_site470] | 9.74 |
| TTTTTTTTTTTTTTTTTTTTTTTTTTATGATATATA [GTGCAC_negctrl_site365] | 8.91 |
| TTAATTATCCATTTTGCACACATTTTAAAACATGAA [CACACA_site189] | 9.8 |
| TTAAATATAATTATATGTACATATTTATGTATATAT [XGTACX_site5811] | 9.71 |
| AGATTGTATTTATGTACACACATTTTTGGAATATGA [CACACA_site1340] | 9.76 |
| TTGATTAAAATTAGTACACACAAAATACATGCGGGG [CACACA_site5284] | 9.95 |
| TATATATTAAAATAATCACACACATCAATTAATGGT [CACACA_site8331] | 10.1 |
| AAAAAATTATTAATTTGTACATAAATAACCAAAAAA [XGTACX_site2488] | 9.62 |
| TGGGTCTCTAACTGGTGTACTATTTACATATTATAC [XGTACX_site8593] | 10 |
| TATGATTTTAACAACTGTACAATATAATAAATCTAA [XGTACX_site2198] | 9.46 |
| ATATATTTTTAATTACGTACTTAATAATATATACAA [XGTACX_site3285] | 9.44 |
| TAAAAGAAAAATTAGTGTACCAATATTAACATAAAA [XGTACX_site5474] | 9.74 |
| TCTCATAGGAAACACACACACACACCCACATATATA [CACACA_site1738] | 11 |
| ATATATTTTTTAAATTTAAAAATTATAAAATTTATA [TGCATGCA_negctrl_site36] | 9.11 |

Reference: the supplement of paper PMC11417369
